Measured values: a collection of fitness landscapes (doi:10.1038/s41467-024-54723-y)
Whole data set: some 18,000 sequences, median “TetR repression strength (sort-seq, GFP reporter)” near 0.23, cut for the highest 2% near 0.68. The list shows a part of the results.

The sequences below were run against TetR (class B, Tn10) (UniProt P04483) (assay: TetR repression strength (sort-seq, GFP reporter) (relative to tetO2 = 1); higher = stronger repression). Details: E. coli.
How it was run: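 Escherichia coli SIG10-MAX cells carried a low-copy plasmid library in which eight operator positions were randomized between a constitutive promoter and sfGFP, and TetR was expressed constitutively. After 5 h of growth at 37 °C in LB with 50 µg/mL chloramphenicol, 10^6 cells were FACS-sorted into 13 fluorescence bins, and each bin was Illumina-sequenced. Repression strength was the top bin index plus one minus the read-weighted mean bin, divided by the value for the unaltered operator. Across three independent transformations, only library members with ≥30 reads in every replicate and a CV ≤0.5 were averaged.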

Chain of UniProt P04483 (P04483 whole entry): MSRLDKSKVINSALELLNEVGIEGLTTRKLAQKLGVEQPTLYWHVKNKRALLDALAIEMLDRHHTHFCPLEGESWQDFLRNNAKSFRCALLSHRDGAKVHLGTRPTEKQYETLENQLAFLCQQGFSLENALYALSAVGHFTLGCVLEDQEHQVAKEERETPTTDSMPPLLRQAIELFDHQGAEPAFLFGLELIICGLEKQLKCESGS

Sequence	TetR repression strength
TCCCAAAGAGTGTTCGAGA	0.322
TCCCTAAGAGTTCGTGAGA	0.287
TCCCCAATAGTGTGGGAGA	0.292
TCCCGATGAGTGTGGGAGA	0.221
TCCCTGACAGTTGGGGAGA	0.147
TCCCAGGCAGTCTGCGAGA	0.363
TCCCGGACAGTAGTGGAGA	0.194
TCCCGGTGAGTCCCGGAGA	0.333
TCCCGCTAAGTAGCGGAGA	0.154
TCCCTTGTAGTGGTGGAGA	0.228
TCCCACGGAGTGACAGAGA	0.433
TCCCCGCAAGTTTATGAGA	0.429
TCCCGCGAAGTTACCGAGA	0.0962
TCCCGGTAAGTTCGCGAGA	0.00619
TCCCTTTGAGTTCTCGAGA	0.29
TCCCGCGGAGTGGTGGAGA	0.155
TCCCCTAGAGTGGGAGAGA	0.258
TCCCAGTTAGTGGGGGAGA	0.317
TCCCTCAGAGTTATGGAGA	0.274
TCCCCATGAGTCGCAGAGA	0.394
TCCCGGAGAGTGGGAGAGA	0.194
TCCCTTAAAGTATGCGAGA	0.238
TCCCCTCGAGTCTGAGAGA	0.89
TCCCCCGGAGTGGGCGAGA	0.111
TCCCAGCTAGTTTGTGAGA	0.314
TCCCAAGCAGTCTAGGAGA	0.119

Sequence	TetR repression strength
TCCCTGGCAGTCGGAGAGA	0.194
TCCCCTGTAGTTGGGGAGA	0.247
TCCCGGCGAGTAGCGGAGA	0.129
TCCCGAGGAGTCCAAGAGA	0.293
TCCCTCAAAGTCTAAGAGA	0.207
TCCCGTGGAGTGGTTGAGA	0.104
TCCCGTTGAGTGCACGAGA	0.13
TCCCAGTAAGTAGCGGAGA	0.198
TCCCGACCAGTCCGGGAGA	0.267
TCCCTGAGAGTGCCCGAGA	0.332
TCCCTATGAGTACCAGAGA	0.857
TCCCTGGCAGTAGTTGAGA	0.12
TCCCGCAGAGTAATTGAGA	0.329
TCCCCCCGAGTGATTGAGA	0.412
TCCCTGACAGTCATTGAGA	0.317
TCCCGCTGAGTGGTAGAGA	0.311
TCCCGATCAGTGCACGAGA	0.104
TCCCCCTGAGTGGCTGAGA	0.0395
TCCCGCATAGTCTTGGAGA	0.338
TCCCCGTAAGTTGAAGAGA	0.279
TCCCAGGTAGTCGTGGAGA	0.323
TCCCCTTAAGTGTAAGAGA	0.0346
TCCCGTACAGTCCAGGAGA	0.215
TCCCGTGCAGTGGAGGAGA	0.133
TCCCGGGGAGTTTCCGAGA	0.415
TCCCCATCAGTGGCTGAGA	0.234

Sequence	TetR repression strength
TCCCTATAAGTCCGAGAGA	0.154
TCCCTGTTAGTTCCCGAGA	0.294
TCCCAAATAGTCATTGAGA	0.112
TCCCGTGGAGTTGCAGAGA	0.254
TCCCGATAAGTTAGAGAGA	0.279
TCCCCCTTAGTGTAGGAGA	0.288
TCCCCAATAGTGTGTGAGA	0.232
TCCCGAAGAGTGGATGAGA	0.192
TCCCTCTAAGTTGGTGAGA	0.22
TCCCAGGGAGTGCAAGAGA	0.293
TCCCACCAAGTGGTTGAGA	0.244
TCCCGCGCAGTAAAGGAGA	0.131
TCCCTACAAGTTAGGGAGA	0.034
TCCCTCACAGTCAGCGAGA	0.0204
TCCCCGCCAGTGGGAGAGA	0.338
TCCCGTTGAGTTGTGGAGA	0.138
TCCCATTAAGTGATGGAGA	0.275
TCCCGGGTAGTGGTTGAGA	0.291
TCCCAAGTAGTTCGAGAGA	0.192
TCCCAATAAGTACGCGAGA	0.348
TCCCCGCGAGTGGCGGAGA	0.202
TCCCCTGGAGTTTGCGAGA	0.627
TCCCGTCAAGTCTGCGAGA	0.0266
TCCCCACTAGTAGGTGAGA	0.3
TCCCTGACAGTAAAGGAGA	0.363
TCCCGCCCAGTTCGGGAGA	0.378

Sequence	TetR repression strength
TCCCGTCGAGTGGAAGAGA	0.253
TCCCTGGGAGTAGCGGAGA	0.13
TCCCTGACAGTACTGGAGA	0.276
TCCCGGCGAGTTTAAGAGA	0.285
TCCCTGCGAGTGTTGGAGA	0.157
TCCCGCAGAGTGGGTGAGA	0.206
TCCCTGGGAGTCAGCGAGA	0.227
TCCCCATGAGTTGTAGAGA	0.165
TCCCGGCTAGTCGTAGAGA	0.307
TCCCGAATAGTGTTCGAGA	0.161
TCCCAATGAGTCGGGGAGA	0.274
TCCCGTGGAGTCGGTGAGA	0.205
TCCCCTTCAGTCATAGAGA	0.474
TCCCTTTGAGTGGCGGAGA	0.286
TCCCGCACAGTTCGGGAGA	0
TCCCGGCAAGTGCTAGAGA	0.0222
TCCCCGGTAGTAGAGGAGA	0.19
TCCCATAAAGTGCCAGAGA	0.0202
TCCCGAGCAGTGGGTGAGA	0.152
TCCCACGAAGTGGTCGAGA	0.0726
TCCCAGGCAGTTGGGGAGA	0.327
TCCCCAGGAGTCTATGAGA	0
TCCCGCTGAGTTACCGAGA	0.211
TCCCTTTAAGTCATAGAGA	0.551
TCCCGGGGAGTTAGTGAGA	0.189
TCCCTAGAAGTTTAAGAGA	0.0122

Sequence	TetR repression strength
TCCCACGGAGTAAAGGAGA	0.205
TCCCGTGTAGTCAGTGAGA	0.215
TCCCCGGAAGTGGCCGAGA	0.187
TCCCGCCCAGTTAGGGAGA	0.402
TCCCTAAAAGTCTACGAGA	0.16
TCCCGGGAAGTCGGGGAGA	0.266
TCCCATACAGTGGACGAGA	0.185
TCCCACCAAGTCCGAGAGA	0.33
TCCCCCAAAGTTTGTGAGA	0.358
TCCCCTTGAGTGCTTGAGA	0.355
TCCCATACAGTGTAAGAGA	0.0864
TCCCAGGGAGTTGGAGAGA	0.265
TCCCATAGAGTGCGTGAGA	0.18
TCCCCAGTAGTCTTCGAGA	0.231
TCCCTGTCAGTTTGAGAGA	0.235
TCCCGTGTAGTGATCGAGA	0.209
TCCCCCACAGTGTATGAGA	0.333
TCCCGCAGAGTGTAAGAGA	0.753
TCCCTTTGAGTTGGGGAGA	0.0965
TCCCTACGAGTGAGAGAGA	0.338
TCCCCTGGAGTGATGGAGA	0.177
TCCCCGTTAGTTGTAGAGA	0.187
TCCCGGGTAGTTGGTGAGA	0.171
TCCCTACAAGTATGGGAGA	0.393
TCCCTCTCAGTTCGGGAGA	0.161
TCCCGAAGAGTTGAAGAGA	0.161

Sequence	TetR repression strength
TCCCTAAGAGTTGAGGAGA	0.0895
TCCCTCCGAGTGGAGGAGA	0.0996
TCCCGGGGAGTTGGCGAGA	0.183
TCCCTCATAGTATGAGAGA	0.207
TCCCCAAAAGTGAGTGAGA	0.131
TCCCTAAAAGTGGGGGAGA	0.143
TCCCACACAGTGAGTGAGA	0.189
TCCCGGGAAGTTACAGAGA	0.0346
TCCCTATCAGTCGATGAGA	0.531
TCCCCCTGAGTACCTGAGA	0.296
TCCCTGCTAGTTGGTGAGA	0.27
TCCCTGGCAGTCACAGAGA	0.298
TCCCCCGTAGTGTGTGAGA	0.12
TCCCTCCCAGTGGGGGAGA	0.217
TCCCTTGTAGTAGGGGAGA	0.255
TCCCTGGCAGTCGATGAGA	0.195
TCCCGTTTAGTATTTGAGA	0.713
TCCCGTAAAGTTTTCGAGA	0.162
TCCCTTAGAGTACTTGAGA	0.342
TCCCATTCAGTACTTGAGA	0.184
TCCCAGTGAGTGTCGGAGA	0.183
TCCCTGGGAGTCTCGGAGA	0.277
TCCCCGGCAGTACCCGAGA	0.181
TCCCTATGAGTGGTGGAGA	0.119
TCCCGTATAGTTTTGGAGA	0.119
TCCCTACTAGTTAAGGAGA	0.0241

Sequence	TetR repression strength
TCCCACTGAGTTGAGGAGA	0.219
TCCCCGACAGTTGTAGAGA	0.415
TCCCTTTTAGTCGGGGAGA	0.179
TCCCCTGGAGTAGGGGAGA	0.302
TCCCCCACAGTTACCGAGA	0.223
TCCCGTCCAGTGGTCGAGA	0.143
TCCCTTTAAGTGCCCGAGA	0.588
TCCCCAAGAGTAAAGGAGA	0.155
TCCCCATGAGTGTAGGAGA	0.182
TCCCCTTTAGTTGGGGAGA	0.239
TCCCTGTGAGTCACGGAGA	0.0821
TCCCGCGAAGTAGATGAGA	0.319
TCCCTTGTAGTATGTGAGA	0.133
TCCCTTCCAGTTGTCGAGA	0.355
TCCCGCGTAGTGTACGAGA	0.108
TCCCATCAAGTAGGGGAGA	0.0957
TCCCCACCAGTCGGAGAGA	0.22
TCCCGGAGAGTGCGGGAGA	0.143
TCCCTTCCAGTTGTGGAGA	0.344
TCCCGCGTAGTGGCAGAGA	0.329
TCCCGTTGAGTTGCTGAGA	0.157
TCCCTCTGAGTTGTCGAGA	0.461
TCCCGAGGAGTAGGAGAGA	0.14
TCCCGGCAAGTATTTGAGA	0.355
TCCCGCCGAGTAGTCGAGA	0.18
TCCCCACAAGTTTGTGAGA	0.143

Sequence	TetR repression strength
TCCCGAAGAGTAGTCGAGA	0.321
TCCCCGCAAGTGGAGGAGA	0.15
TCCCCAGGAGTATGTGAGA	0.378
TCCCAGCGAGTAGGCGAGA	0
TCCCAAGAAGTGTAAGAGA	0.181
TCCCGAAGAGTTGGAGAGA	0.575
TCCCGTGGAGTTATCGAGA	0.213
TCCCTGAGAGTTGAGGAGA	0.54
TCCCAGGCAGTGGTGGAGA	0.161
TCCCTTTCAGTTGGAGAGA	0.245
TCCCCCGAAGTGCCTGAGA	0.407
TCCCAAATAGTAGGAGAGA	0.236
TCCCCCTCAGTTTAAGAGA	0.296
TCCCATCGAGTGTATGAGA	0.219
TCCCGTGTAGTTGCTGAGA	0.132
TCCCTTGTAGTTCACGAGA	0.309
TCCCGTACAGTTTTAGAGA	0.269
TCCCTTAAAGTACTAGAGA	0
TCCCGCGTAGTGCTTGAGA	0.177
TCCCGCGTAGTACATGAGA	0.246
TCCCGTACAGTGTACGAGA	0.0921
TCCCGCACAGTGTTTGAGA	0.322
